First the molecules themselves.
B1: LINE1-full (parent)
chain: UACGUAGGUGGUUUUCCCCUGAUAGUGCUAAGGGGGCCUGGAAGUUUGGACUGGGCAGAGCUCAACACAGCGUGGCAAAGUGGCUGUGGCUAGACUGCCUCUCUGGAUUCCUCGUCACUCAGCAGGGCAUCUCUGAGAGAAAUGCC

The source gives no read counts; variants with many changes may rest on few reads.

This series covers variants of B1. Nature of the series: self-cleavage, relative activity (ratio to wild type); higher = more cleavage; in vitro, sequencing; the parent is a self-cleaving ribozyme.
Take UACGUGGGUGGUUUUCCCCUGAUAGUGCUAAGGUGGCCUGGAAGUUUGGACUGGGCAGAGCUCAACUCAGCGUGGCAAAGUGGCUGUGGCUAGACUGCCUCUCUGGAUUCCUCGUCGCUCAGCAGGGCAUCUCUGAGAGAGAUGCC: the self-cleavage worked out at 0.33.

Turning to UACGUGGGUGGUUUUCCCCUGAUAGUGCUAAGGGAGCCUGGAAGUUUGGACUGGGCAGAGCUCAACACAGCGAGGCAAAGUGGCUGUGGCUAGACUGCCUCUCUGGAUCCCUCGUCACUCAGCAGGGCAUCUCUGAGAGAAAUGCC, the self-cleavage was determined as 2.42.

In the case of UACGUGGGUGGUUUUCCCCUGAUAGUGCUAAGGGGGCCUGGAAGUUUGGACUAGGCAGGGCUCAACACUGCGUGGCAAAGUGGCUGUGGCUAGACAGCCUCUCUGGAUUCCUCGUCACUCGGCAGGGCAUCUCUGAGAGAAAUGCC, the self-cleavage turned out to be 0.05.

For the variant UACGUGGGUGGUUUUCCCCUGAUAGUACUAAGGGGGCCUGGAAGUUUGGACUGGGCAGAGCUCAACACUGCGUGGCAAAGUGGCUGUGGCUAGACUGCCUCUCUGGAUUCCUCGUCACUCAGCAGGGCGUCUCGGAGAGGAAUGCC, the self-cleavage amounted to 0.07.

Regarding UACGUGGGUGGUUUUCCCCUGAUAGUGCUAAGGGGGCCUGAAAGUUUGAACUGGGCAGAGCUCAACACAGCGAGGCAAAGUGGCUGUGGCUAGACUGCCUCUCUGGAUUCCUCGUCACUCAGCAGGGCAUCUCUGAGAGAAAUACC, the self-cleavage stood at 0.97.

As to UACGUGGGUGGUUUUCCCCUGAUAGUGCUAAGGGGGCCUGGAAGUUUGGACUGGGCAGAGUUCAACACAGCGUGGCAAAGUGGCUGUGGCUAGACUGCCUCUCUGGAUUCCUCGUCACCCAGCAGGGCAUCUCUGAUAGAAAUGCC, the self-cleavage came to 0.47.

For the variant UACGUGGGUGGUUUUCCCCUGAUAGUGCUAAGGGGUCCUGGAAGUCUGGACUGGGCAGAGCUCAACACAGCGUGGCAAAGUGGCUGUGGCUAGACUGCCUCUCUGGAUUCCUCGUCACUCAGCAGGGCAUCUCUGAGAGAAAUGCC, the self-cleavage came to 0.74.

In the case of UACGUGGGUGGUUUUCCCCUGAUAGUGCUAAGCGGGCCUGGAAGUUUGGACUGGGCAGAGCUCCACGCAGCGUGGCAAAGUGGCUGUGGCUAGACUGCCUCUCUGGAUUCCUCGUCACUCAGCAGGUCAUCUCUGAGGGAAAUGCC, the self-cleavage was found to be 0.

Consider UACGUGGGUGGUUUUCCCCUGAUAGUGCUAAGGGGGCCUGGAAGUUUGGACUGGGCAGAGUUCGACACAGCGUGGCAAAGUGGCUGUGGCUAGACUGCCUCUCUGGAUUCCUCGUCACUCAGCAGGGCAUCUCUGAGAGAAACGCC, for which the self-cleavage is 0.09.

For the variant UACGUGAGUGGUUUACCCCUGAUAGUGCUAAGGGGGCCUGGAGGUUUGGACUGGGCAGAGCUCAACACAGCGUGGCAAAGCGGCUGUGGCUAGACUGCCUCUCUGGAUUCCUCGUCACUCAGCAGGGCAUCUCUGAGAGAAAUGCC, the self-cleavage was determined as 0.92.

Turning to UACGUGGGUGGUUUUCCCCUGAUAGUGCUAAGGGGGCCUGGAAGUUUGGACUGGGCAGAGCUUAACACAGCGUGGCAAAGUGGCUGUAGCUAGACUGCCUCUCUGGAUUCCUCGUCACUCAGCAGGGCAUCUCUGAGAGAAAUGCC, the self-cleavage was determined as 0.21.

As for UACGUGGGUGGUUUUCCCCUUAUAGUGCUAAGGGGGCCUGGAAGUUUGGACUGGGCAGAGCUCUACACAGCGUGGCAAAGUGGCUGUGGCUAGACUGCCUCUCUGGAUUCCUCGUCACUCAGCUGGGCAUCUCUGAGGGAAAUGCC, the self-cleavage amounted to 0.53.

For the variant UACGUGGGUGGUUUUCCCCUGAUAGUGCUAAGUGGGCCUGGAAGUUUGGACAGGGCAGAGCUCAACACAGCGUGGCAAAGUGGCUGUGGCUAGACUGCCUCUCUGGAUUCCACGUCACUCAGCAGGGCAUCUCUGAGAGAAGUGCC, the self-cleavage was determined as 0.87.

As for UACGUGGGUGGUUUUCCCCUGAUAGUGCUAAGGGGGCCUGGAAGUUUGUACUGGGCGGAGCUCAACACAGCGCGGCAAAGUGGCUGUGGCUAGACUGCCACUCUGGAUUCCUCGUCACUCAGCAGGGCAUCUCUGAGAGAAAUGCC, the self-cleavage is 0.55.

As for UACGUGGGUGGUUUUCCCCUGAUAGUGCUAAGUGGGCCUGGAAGUUUGGACUGGGCAGAGCUCAACACAGCGUGGCAAAGUGGCUGUGGCUAGACUGCCUCUCUGGAUUCCCCGUCACUCAGCAGGGCAUCUCUGAGAGAAGUGCC, the self-cleavage came out at 0.9.

With UACGUGGGUGGUUUUCCCCUGAUAGUGCUAAGGGGGCCUGGAAGUUUGGACUUGGCAGAGCUCAACACAGCGUGGCUAAGUGGCUGUGGCUAGACUGCCUCUCUGGAUUCCUCGUCACUCAGCAGGGCAUCUCUGAGAGAAAUGCC, the self-cleavage came out at 0.91.

In the case of UACGUGGGUGGUUUUCCCCUGAUAGUGGUAAGGGGGCCUGGAAGUUUGGACUGGGCAGAGCUCAACACAGCGUGGCAAAGUAGCUGUGGCUAGACUGCCUCUCUGGAUUCCUCGUCACUCAGCAGGGCAUCUCUGAGAGAAAUGCC, the self-cleavage amounted to 1.11.

As for UACGUGGGUGGUUUUCCCCUGAUAGUGCUAAGGGGGCCUGGAAGUUUGGACUGGGCAGAGUUCAACACUGCGUGGCAAAGUGGCUGUGGCUAGACUGCCUCUCUGGAUUCCUCGUCACUCAGCAGGGCAUCACUGAGAGAAAUGCC, the self-cleavage came to 0.

On to UACGUGGGUGGUUUUCCCCUGAUAGUGCUAAGGGGGUCUGGAAGUUUGGACUGGGCAGAGCUCAACACAGCGUGGCAAAGUGGCUGUGGCUAGUCUGCCUCUCUGGGUACCUCGUCACUCAGCAGGGCAUCUCUGAGAGAAAUGCC, for which the self-cleavage is 0.55.

Turning to UACGUGGGUGGUUUUCCCCUGAUAGUGCUAAGGGGGCCUGGAAGUUUGGACUGGGCAGAGCUCAACACAGCGUGGCAAAGUGGCUGUGGCUAGAUUGCCUCUCUGGGUUCCUCGUCACUCAGCAGGGCAUCUCUGAGAGAAAUGCC, the self-cleavage came to 0.26.

The values above are taken from the RNAGym collection of RNA variant scans (doi:10.7554/elife.90254).
